# PubChem BioAssay (NCATS)
# The shares of active, inactive and inconclusive entries below differ from those in the screen. Calls come from the whole dose curve; as a rule, active = well fitted cell-killing curve with a large enough effect; inconclusive = small, poorly fitted or top-dose-only effect; inactive = flat fitted curve, though single readings scatter. A potency beside an inconclusive call is a rough fit, not a confirmed value.
# Assay: Vero cells viability qHTS for Zika virus inhibitors (AID 1347167)
# Outline: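 qHTS titration; 24-48 h compound exposure, 37 degrees C/5% CO2; DMEM, 4% FBS; CellTiter Glo ATP luminescence.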
# Potency is the fitted concentration of half-maximal effect; tags give direction and shape of the fitted curve.
structure (smiles),measurement,value
Cc1cc(CN2CCN(c3c(Br)cnc4nc(-c5ccc(N6CCN(C)CC6)cc5)[nH]c34)CC2)no1,Potency,"inconclusive: 36.9 µM [cytotoxic, single point]"
